Results as given in patent US11285169B2, “Methods for modulating chemotherapeutic cytotoxicity” (The United States of America, as represented by the …, priority 2013, dated 2022).

Key:
[1] = system: WT Jurkat cells; assay: cells; details: Homo sapiens, 48 h, read-out: AC50 (μM) WT
[2] = system: CD47 deficient (CD47 KO) Jurkat T cells; assay: cells; details: Homo sapiens, 48 h, read-out: AC50 (μM) CD47 KO
[3] = system: CD47 deficient (CD47 KO) Jurkat T cells; details: for AC50: read-out: AC50 (μM) CD47 KO, cell viability
[4] = system: WT Jurkat cells; details: for AC50: read-out: AC50 (μM) WT
[5] = log AC50 difference CD47 KO minus WT
[6] = CD47 KO Jurkat T cells, 48 hours, 10^-9 to 10^-4 M, CellTiter-Glo
[7] = WT Jurkat cells, 48 hours, 10^-9 to 10^-4 M, CellTiter-Glo
[8] = CD47 KO Jurkat T cells, 48 hours
[9] = difference CD47 KO minus WT Jurkat cells, 48 hours
[10] = WT Jurkat cells, cell viability, 48 hours

| Molecule | AC50 [1] | AC50 [2] | Δ LogAC50 CD47KO-WT [3, 5] | Maximal Response CD47 KO (RLU) [3, 6] | Maximal Response WT (RLU) [4, 7] | further results |
| --- | --- | --- | --- | --- | --- | --- |
| Cn1cnc(N)c2ncnc1-2 [3-Methyladenine] | 0.132 µM | 0.59 µM | 0.65 | – | – | – |
| Sc1ncnc2nc[nH]c12 [6-mercaptopurine] | 0.526 µM | 1.66 µM | 0.5 | – | – | inhibitory potency (AC50), CD47-deficient versus WT Jurkat T cells (in words) ([3]; 48 hours): significant decrease in inhibitory potency |
| CCN1CCN(Cc2ccc(-c3cc4c(N[C@H](C)c5ccccc5)ncnc4[nH]3)cc2)CC1 [AEE-788] | 1.87 µM | 20.9 µM | 1.05 | – | – | – |
| C=CC(=O)Nc1ccc2ncnc(Nc3ccc(OCc4cccc(F)c4)c(Cl)c3)c2c1 [AST-1306] | 0.264 µM | 1.05 µM | 0.6 | – | – | – |
| CC[C@H](CC#N)OC(=O)N[C@@H](C)c1cccc(NC(=O)Nc2ccc(-c3cnco3)c(OC)c2)c1 [AVN-944] | 0.372 µM | 8.33 µM | 1.35 | – | – | – |
| Cc1cc(Nc2nc(N[C@@H](C)c3ccc(F)cc3)c(C#N)cc2F)[nH]n1 [AZ-960] | 0.833 µM | 14.8 µM | 1.25 | – | – | – |
| CO[C@H]1/C=C\C=C(/C)C(=O)NC2=CC(=O)C(NCCN(C)C)=C(C[C@@H](C)C[C@H](OC)[C@H](O)[C@@H](C)/C=C(\C)[C@@H]1OC(N)=O)C2=O [Alvespimycin hydrochloride] | 0.166 µM | 0.662 µM | 0.6 | – | – | – |
| C[C@H]1[C@H](OC(=O)CCC(=O)O)O[C@@H]2O[C@@]3(C)CC[C@H]4[C@H](C)CC[C@@H]1[C@@]24OO3 [Artesunate (AS), Artesunate] | 2.35 µM | 14.8 µM | 0.8 | – | – | – |
| Cc1cc(C2CCCCC2)n(O)c(=O)c1 [Ciclopirox] | 1.05 µM | 14.8 µM | 1.15 | – | – | – |
| C=C[C@H]1CN2CC[C@H]1C[C@H]2[C@H](O)c1ccnc2ccccc12 [Cinchonidine] | 3.32 µM | 20.9 µM | 0.8 | – | – | – |
| CC1(COc2ccc3c(c2)ncn3-c2ccc3cccc(N4CCC(N)CC4)c3n2)COC1 [Crenolanib] | 2.64 µM | 14.8 µM | 0.75 | – | – | – |
| Nc1ccccc1NC(=O)c1ccc(CNC(=O)OCc2cccnc2)cc1 [Entinostat] | 0.833 µM | 2.64 µM | 0.5 | – | – | – |
| COc1cccc2c1C(=O)c1c(O)c3c(c(O)c1C2=O)C[C@@](O)(C(=O)CO)C[C@@H]3O[C@H]1C[C@H](N)[C@@H](O)[C@H](C)O1 [Epirubicin hydrochloride] | – | 1.05 µM | 0.6 | 49.805 RLU | – | – |
| COC(=O)Nc1nc2ccc(Sc3ccccc3)cc2[nH]1 [Fenbendazole] | 0.59 µM | 2.09 µM | 0.55 | – | – | – |
| CC(C)Oc1ccc(C(=O)N[C@H](CNC(=O)CN(C)C)Cc2ccc(-c3cn4cccc([C@H](C)O)c4n3)cc2)cc1Cl [GSK-923295] | 0.264 µM | 4.69 µM | 1.25 | – | – | – |
| CCCCN(CCCC)CCC(O)c1cc2c(Cl)cc(Cl)cc2c2cc(C(F)(F)F)ccc12 (stereo not shown) [Halofantrine] | 0.469 µM | 16.6 µM | 1.55 | – | – | – |
| COc1cc2c(cc1-c1c(C)noc1C)ncc1[nH]c(=O)n([C@H](C)c3ccccn3)c12 [I-BET151] | 5.9 µM | 20.9 µM | 0.55 | – | – | – |
| CC(C)n1nc(-c2ccc3oc(N)nc3c2)c2c(N)ncnc21 [INK-128] | 0.332 µM | 4.18 µM | – | – | – | – |
| CC(=O)[C@]1(O)Cc2c(O)c3c(c(O)c2[C@@H](O[C@H]2C[C@H](N)[C@H](O)[C@H](C)O2)C1)C(=O)c1ccccc1C3=O [Idarubicin hydrochloride] | 0.148 µM | 0.662 µM | 0.65 | – | – | – |
| Cc1ccc(C(=O)N(CCCN)[C@@H](c2nc3cc(Cl)ccc3c(=O)n2Cc2ccccc2)C(C)C)cc1 [Ispinesib] | 0.0019 µM | 59 µM | 4.5 | – | – | – |
| Nc1ccccc1NC(=O)c1ccc(CNc2nccc(-c3cccnc3)n2)cc1 [Mocetinostat] | 0.59 µM | 2.64 µM | – | – | – | – |
| C=C1C(=O)[C@]23[C@H](O)[C@H]1CC[C@H]2[C@@]12CO[C@]3(O)[C@@H](O)[C@@H]1C(C)(C)CC[C@@H]2O [Oridonin] | – | 7.43 µM | 0.5 | – | – | – |
| O=C1NC(=O)[C@@H](c2cn3c4c(cccc24)CCC3)[C@@H]1c1c[nH]c2ccccc12 [Tivantinib] | – | – | – | 35.424 RLU | 9.411 RLU | – |
| COc1cc2nccc(Oc3ccc(NC(=O)Nc4cc(C)on4)c(Cl)c3)c2cc1OC [Tivozanib] | – | – | – | 30.389 RLU | 8.955 RLU | – |
| Cc1ccc(C(=O)c2cc(O)c(O)c([N+](=O)[O-])c2)cc1 [Tolcapone] | – | – | – | 72.927 RLU | 36.753 RLU | – |

| Molecule | AC50 [1] | AC50 [2] | Δ LogAC50 CD47KO-WT [3, 5] | Maximal Response CD47 KO (RLU) [3, 6] | Maximal Response WT (RLU) [4, 7] | further results |
| --- | --- | --- | --- | --- | --- | --- |
| CC1(C)O[C@@H]2C[C@H]3[C@@H]4CCC5=CC(=O)C=C[C@]5(C)[C@@]4(F)[C@@H](O)C[C@]3(C)[C@]2(C(=O)CO)O1 [Triamcinolone acetonide] | – | – | – | 99.996 RLU | 71.308 RLU | – |
| CC(/C=C/C(=O)NO)=C\[C@@H](C)C(=O)c1ccc(N(C)C)cc1 [Trichostatin A] | – | – | – | – | – | AC50 [4]: 0.209 µM; Δ LogAC50 CD47KO-WT [3]: 0.5; AC50 [3, 8]: 0.662 µM |
| CN1N=C(N)c2cn([C@@H]3O[C@H](COP(=O)(O)O)[C@@H](O)[C@H]3O)c3ncnc1c23 [Triciribine phosphate] | – | – | – | 80.607 RLU | 52.513 RLU | – |
| O=c1[nH]c(=O)n([C@H]2C[C@H](O)[C@@H](CO)O2)cc1C(F)(F)F [Trifluridine] | – | – | – | 57.881 RLU | 10.459 RLU | – |
| CC(C)[C@]12O[C@H]1[C@@H]1O[C@]13[C@]1(O[C@H]1C[C@H]1C4=C(CC[C@@]13C)C(=O)OC4)[C@@H]2O [Triptolide] | – | – | – | 65.405 RLU | 5.613 RLU | – |
| N#C/C(=C\c1ccc(O)c(O)c1)C(=O)NCc1ccccc1 [Tyrphostin B42] | – | – | – | 67.867 RLU | 35.116 RLU | Δ Maximal Response CD47KO-WT [3, 9]: 32.751 |
| NC(=O)c1noc([C@H](CCCC2CCCCC2)CC(=O)NO)n1 [UK-383367] | – | – | – | 49.091 RLU | 13.282 RLU | Δ Maximal Response CD47KO-WT [3, 9]: 35.809 |
| CS(=O)(=O)c1ccc(-c2cnc(N)c(C(=O)Nc3ccccc3)n2)cc1 [VE-821] | – | – | – | – | – | Maximal Response WT (RLU) [4]: 17.653 RLU; Maximal Response CD47 KO (RLU) [3]: 64.063 RLU |
| CC(C)[C@H](N)C(=O)OCCOCn1cnc2c(=O)[nH]c(N)nc21 [Valaciclovir] | – | – | – | 73.063 RLU | 45.639 RLU | – |
| Clc1ccc(Nc2nnc(Cc3ccncc3)c3ccccc23)cc1 [Vatalanib] | – | – | – | 60.983 RLU | 14.015 RLU | – |
| COc1cccc(-c2ccc(NC(=O)C3=C(C(=O)O)CCC3)c(F)c2)c1 [Vidofludimus] | – | – | – | 64.725 RLU | 19.287 RLU | – |
| CC[C@]1(O)C[C@H]2CN(CCc3c([nH]c4ccccc34)[C@@](C(=O)OC)(c3cc4c(cc3OC)N(C=O)[C@H]3[C@@](O)(C(=O)OC)[C@H](OC(C)=O)[C@]5(CC)C=CCN6CC[C@]43[C@@H]65)C2)C1 [Vincristine sulfate] | – | – | – | 37.863 RLU | 9.981 RLU | – |
| COC(=O)Nc1ccc(-c2nc(N3CCOCC3)c3cnn(C4CCN(C(=O)OC)CC4)c3n2)cc1 [WYE-354] | – | – | – | 31.102 RLU | 2.442 RLU | Δ Maximal Response CD47KO-WT [3, 9]: 28.66 |
| C=CC(=O)Nc1cccc(Oc2nc(Nc3ccc(N4CCN(C)CC4)cc3)ncc2Cl)c1 [WZ-3146] | – | – | 0.5 | – | – | AC50 [4, 10]: 4.18 µM; AC50 [3, 8]: 13.2 µM |
| CC(=O)CC(c1ccccc1)c1c(O)c2ccccc2oc1=O (stereo not shown) [Warfarin sodium] | – | – | – | 121.897 RLU | 100.275 RLU | – |
| CCOc1cc(N2CCC(O)CC2)ccc1Nc1ncc2c(n1)N(C)c1ccccc1C(=O)N2C [XMD8-92] | – | – | – | 39.731 RLU | 15.283 RLU | Δ Maximal Response CD47KO-WT [3, 9]: 24.448 |
| COc1ccc(C(=O)CC2(O)C(=O)Nc3c(Cl)ccc(Cl)c32)cc1 (stereo not shown) [YK-4-279] | – | – | 0.75 | 38.318 RLU | 14.615 RLU | AC50 [4, 10]: 0.166 µM; Δ Maximal Response CD47KO-WT [3, 9]: 23.703; AC50 [3, 8]: 0.935 µM |
| O=C1Cc2cc(CCN3CCN(c4nsc5ccccc45)CC3)c(Cl)cc2N1 [Ziprasidone hydrochloride] | – | – | – | 42.21 RLU | 17.586 RLU | – |
| Antimycin A | – | – | – | 46.04 RLU | 24.41 RLU | Δ Maximal Response CD47KO-WT [3, 9]: 21.63 |
| Bioymifi | – | – | – | – | – | Maximal Response WT (RLU) [4]: 10.488 RLU; Maximal Response CD47 KO (RLU) [3]: 48.515 RLU; Δ Maximal Response CD47KO-WT [3]: 38.027 |
| Bleomycin sulfate | – | – | – | – | – | Maximal Response WT (RLU) [4]: 18.436 RLU; Maximal Response CD47 KO (RLU) [3]: 76.042 RLU; Δ Maximal Response CD47KO-WT [3]: 57.606; sensitivity of CD47-expressing versus deficient Jurkat T cells ([3]; 48 hours): differing sensitivities |
| Carboplatin | – | – | – | – | – | Maximal Response WT (RLU) [4]: 118.461 RLU; Maximal Response CD47 KO (RLU) [3]: 152.695 RLU; Δ Maximal Response CD47KO-WT [3]: 34.234 |
| Elactocin | – | – | – | – | – | Maximal Response WT (RLU) [4]: 6.663 RLU; Maximal Response CD47 KO (RLU) [3]: 30.361 RLU; Δ Maximal Response CD47KO-WT [3]: 23.698 |
| SN-38 | – | – | – | – | – | AC50 [4]: 0.0037 µM; Δ LogAC50 CD47KO-WT [3]: 1.9; cytotoxicity in CD47 deficient versus wild-type Jurkat cells (FIGS. 14, 15) ([3]; 48 hours, increasing concentrations): protected; AC50 [3, 8]: 0.296 µM |

Structures can show the parent of a compound that is named as a salt. Where two headings read alike, the source gives them in different places.
